# Assay results taken from publication PMC9911399, “Two distinct binding modes provide the RNA-binding protein RbFox with extraordinary sequence specificity”.
# Positions count from the first letter of the chain named. Some of the results follow.
# T1: RBFOX1 RRM (Homo sapiens, UniProt Q9NWB1 109-208)
# T1 sequence: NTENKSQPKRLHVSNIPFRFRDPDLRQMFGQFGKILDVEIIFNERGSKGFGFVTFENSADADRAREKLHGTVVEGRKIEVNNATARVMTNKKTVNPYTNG
# B1: CGACACC (DNA:RNA)
# RNA: GGGAGACCGGAAUUCAGAUUGUCCCGACACCUUAAAUCCCGUCGUAGCCACCA
# DNA 1: CAATCTGAATTCCGGTCTCCC
# DNA 2: TGGTGGCTACGACGGGATT
# B2: CGUACGG (DNA:RNA)
# RNA: B1 RNA with A27U, C28A, A29C, C30G, C31G
# DNA 1: CAATCTGAATTCCGGTCTCCC
# DNA 2: TGGTGGCTACGACGGGATT
# B3: CUUCCAC (DNA:RNA)
# RNA: B1 RNA with G26U, A27U, A29C, C30A
# DNA 1: CAATCTGAATTCCGGTCTCCC
# DNA 2: TGGTGGCTACGACGGGATT
# B4: GGUUAUU (DNA:RNA)
# RNA: B1 RNA with C25G, A27U, C28U, C30U, C31U
# DNA 1: CAATCTGAATTCCGGTCTCCC
# DNA 2: TGGTGGCTACGACGGGATT
# B5: ACGCCUU (DNA:RNA)
# RNA: B1 RNA with C25A, G26C, A27G, A29C, C30U, C31U
# DNA 1: CAATCTGAATTCCGGTCTCCC
# DNA 2: TGGTGGCTACGACGGGATT
# B6: GGAGACA (DNA:RNA)
# RNA: B1 RNA with C25G, C28G, C31A
# DNA 1: CAATCTGAATTCCGGTCTCCC
# DNA 2: TGGTGGCTACGACGGGATT
# B7: UAGACCG (DNA:RNA)
# RNA: B1 RNA with C25U, G26A, A27G, C28A, A29C, C31G
# DNA 1: CAATCTGAATTCCGGTCTCCC
# DNA 2: TGGTGGCTACGACGGGATT
# B8: CAACGUG (DNA:RNA)
# RNA: B1 RNA with G26A, A29G, C30U, C31G
# DNA 1: CAATCTGAATTCCGGTCTCCC
# DNA 2: TGGTGGCTACGACGGGATT
# B9: UGUGGGC (DNA:RNA)
# RNA: B1 RNA with C25U, A27U, C28G, A29G, C30G
# DNA 1: CAATCTGAATTCCGGTCTCCC
# DNA 2: TGGTGGCTACGACGGGATT
# B10: CAUUAUG (DNA:RNA)
# RNA: B1 RNA with G26A, A27U, C28U, C30U, C31G
# DNA 1: CAATCTGAATTCCGGTCTCCC
# DNA 2: TGGTGGCTACGACGGGATT
# B11: CUCUCGC (DNA:RNA)
# RNA: B1 RNA with G26U, A27C, C28U, A29C, C30G
# DNA 1: CAATCTGAATTCCGGTCTCCC
# DNA 2: TGGTGGCTACGACGGGATT
# B12: UUAUGUG (DNA:RNA)
# RNA: B1 RNA with C25U, G26U, C28U, A29G, C30U, C31G
# DNA 1: CAATCTGAATTCCGGTCTCCC
# DNA 2: TGGTGGCTACGACGGGATT
# B13: UCCCUUU (DNA:RNA)
# RNA: B1 RNA with C25U, G26C, A27C, A29U, C30U, C31U
# DNA 1: CAATCTGAATTCCGGTCTCCC
# DNA 2: TGGTGGCTACGACGGGATT
# B14: UGAGCUA (DNA:RNA)
# RNA: B1 RNA with C25U, C28G, A29C, C30U, C31A
# DNA 1: CAATCTGAATTCCGGTCTCCC
# DNA 2: TGGTGGCTACGACGGGATT
# B15: AGGCAGG (DNA:RNA)
# RNA: B1 RNA with C25A, A27G, C30G, C31G
# DNA 1: CAATCTGAATTCCGGTCTCCC
# DNA 2: TGGTGGCTACGACGGGATT
# B16: GUUAGUU (DNA:RNA)
# RNA: GGGAGACCGGAAUUCAGAUUGUCCGUUAGUUUUAAAUCCCGUCGUAGCCACCA
# DNA 1: CAATCTGAATTCCGGTCTCCC
# DNA 2: TGGTGGCTACGACGGGATT
# B17: UUCGCCU (DNA:RNA)
# RNA: B16 RNA with G25U, U27C, A28G, G29C, U30C
# DNA 1: CAATCTGAATTCCGGTCTCCC
# DNA 2: TGGTGGCTACGACGGGATT
# B18: CCUAGUG (DNA:RNA)
# RNA: B16 RNA with G25C, U26C, U31G
# DNA 1: CAATCTGAATTCCGGTCTCCC
# DNA 2: TGGTGGCTACGACGGGATT
# B19: UUUCUAC (DNA:RNA)
# RNA: B1 RNA with C25U, G26U, A27U, A29U, C30A
# DNA 1: CAATCTGAATTCCGGTCTCCC
# DNA 2: TGGTGGCTACGACGGGATT
# B20: GGAUGCG (DNA:RNA)
# RNA: B1 RNA with C25G, C28U, A29G, C31G
# DNA 1: CAATCTGAATTCCGGTCTCCC
# DNA 2: TGGTGGCTACGACGGGATT
# Target: T1, RBFOX1 RRM
# Assay: EMSA; HiTS-Eq, 1 nM pool, 10 min; buffer printed only for the single-RNA assays: 10 mM Tris pH 7.5, 150 mM NaCl, 3.4 mM EDTA, 0.001% NP-40, 30 C
# Details: tags: His6 N-terminal (pET28a); label: 5' 32P
# Procedure, shortened: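 Purified wild-type or mutant RbFox RRM at increasing concentrations was equilibrated with 1 nM of 5′-radiolabelled RNA carrying 7 randomized nucleotides for 10 min in 50 µL. Unbound RNA was separated by 8% native PAGE and sequenced. Relative association constants came from read-count changes of each RNA species compared with the control reaction, normalised to the cognate motif.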
row,Binder,binding signal
1,B1,0.00666 KA relative to UGCAUGU
2,B2,0.00683 KA relative to UGCAUGU
3,B3,0.00388 KA relative to UGCAUGU
4,B4,0.00138 KA relative to UGCAUGU
5,B5,0.00619 KA relative to UGCAUGU
6,B6,0.0108 KA relative to UGCAUGU
7,B7,0.00882 KA relative to UGCAUGU
8,B8,0.0072 KA relative to UGCAUGU
9,B9,0.0102 KA relative to UGCAUGU
10,B10,0.007 KA relative to UGCAUGU
11,B11,0.00986 KA relative to UGCAUGU
12,B12,0.0206 KA relative to UGCAUGU
13,B13,0.00154 KA relative to UGCAUGU
14,B14,0.015 KA relative to UGCAUGU
15,B15,0.0153 KA relative to UGCAUGU
16,B16,0.0115 KA relative to UGCAUGU
17,B17,0.0127 KA relative to UGCAUGU
18,B18,0.00931 KA relative to UGCAUGU
19,B19,0.0115 KA relative to UGCAUGU
20,B20,0.0222 KA relative to UGCAUGU
